# The supplement of paper PMC10369915
# Some of the results follow. No stated cut-off is given here; in the data, active = 3.2 or more and inactive = the rest. Most of these values are background signal.
# B1: KCNN2_HUMAN_160 (peptide)
# chain: TELSWGAYDKASLYS
# B2: IRS1_HUMAN_896 (peptide)
# chain: EPKSPGEYVNIEFGS
# B3: KCNN2_HUMAN_160_YA (peptide)
# chain: TELSWGAYDKASLAS
# B4: IQGA3_HUMAN_162 (peptide)
# chain: APQIHDLYGKVKFTA
# B5: ITK_HUMAN_180 (peptide)
# chain: ETVVIALYDYQTNDP
# B6: JAK2_HUMAN_813 (peptide)
# chain: NSLFTPDYELLTEND
# B7: KIRR1_HUMAN_724 (peptide)
# chain: ERTPYEAYDPIGKYA
# B8: KCC2B_HUMAN_17 (peptide)
# chain: FTDEYQLYEDIGKGA
# B9: K2C8_HUMAN_228 (peptide)
# chain: INFLRQLYEEEIREL
# B10: KPCD2_HUMAN_438_YA (peptide)
# chain: NNTTNRAYKEIPLSE
# B11: AMPD1_HUMAN_249 (peptide)
# chain: KMKDGVVYVYPNEAA
# B12: ITPR1_HUMAN_353 (peptide)
# chain: NAQEKMVYSLVSVPE
# B13: ITGB7_HUMAN_758 (peptide)
# chain: EIYDRREYSRFEKEQ
# B14: KHSRP_HUMAN_583 (peptide)
# chain: WAAYYSHYYQQPPGP
# B15: KPCD_HUMAN_374 (peptide)
# chain: ELKGRGEYFAIKALK
# B16: JAK2_HUMAN_570 (peptide)
# chain: VRREVGDYGQLHETE
# B17: ALK_HUMAN_1092_YA (peptide)
# chain: TSTIMTDYNPNACFA
# B18: KPCG_HUMAN_675 (peptide)
# chain: ADFQGFTYVNPDFVH
# B19: AMPD1_HUMAN_249_YA (peptide)
# chain: KMKDGVVYVAPNEAA
# B20: IQGA1_HUMAN_172 (peptide)
# chain: APQIQDLYGKVDFTE
# B21: KAPCB_HUMAN_331 (peptide)
# chain: DTSNFDDYEEEDIRV
# B22: JAK2_HUMAN_868 (peptide)
# chain: GSVEMCRYDPLQDNT
# B23: KIRR1_HUMAN_724_YA (peptide)
# chain: ERTPAEAYDPIGKAA
# B24: KIT_HUMAN_568_YA (peptide)
# chain: EEINGNNYVAIDPTQ
# B25: AMOL2_HUMAN_107 (peptide)
# chain: KGEELPTYEEAKAHS
# B26: IRS4_HUMAN_921 (peptide)
# chain: EADSSSDYVNMDFTK
# B27: IRS2_HUMAN_540 (peptide)
# chain: GGGGGEFYGYMTMDR
# B28: ITPR1_HUMAN_482 (peptide)
# chain: KLLEDLVYFVTGGTN
# B29: ITB3_HUMAN_773 (peptide)
# chain: DTANNPLYKEATSTF
# B30: KIRR1_HUMAN_605_YA (peptide)
# chain: MKDPTNGYANVRAHE
# B31: ALK_HUMAN_1507 (peptide)
# chain: TSLWNPTYGSWFTEK
# B32: JAK2_HUMAN_372 (peptide)
# chain: FVSLIDGYYRLTADA
# B33: JUNB_HUMAN_182 (peptide)
# chain: GPEPPPVYTNLSSYS
# B34: 3BP2_HUMAN_174 (peptide)
# chain: YPTDNEDYEHDDEDD
# B35: KPYM_HUMAN_105 (peptide)
# chain: FASDPILYRPVAVAL
# B36: KCNA3_HUMAN_162_YA (peptide)
# chain: SFDAILAYAQSGGRI
# What was measured:
# Test in all cases: enrichment score (SH2-bound / input frequency) (ratio); bacterial display of known human phosphotyrosine sites (pTyr-Var adds point mutants) read by sequencing; higher = stronger binding; tyrosines were phosphorylated by kinases first
# Conditions in all cases: peptide library: Human pTyr
# SHP2 C-SH2 domain E139D = target: SHP2 C-SH2 domain E139D
# [1] = target: SHP2 C-SH2 domain wild-type
# SHP2 N-SH2 domain L43F = target: SHP2 N-SH2 domain L43F
# SHP2 N-SH2 domain T42A = target: SHP2 N-SH2 domain T42A
# SHP2 N-SH2 domain T52S = target: SHP2 N-SH2 domain T52S
# [2] = target: SHP2 N-SH2 domain wild-type
# 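Further: displayed peptides selected on beads carrying the immobilized SH2 domain, with library peptides lacking any tyrosine serving as negative controls.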
Binder,enrichment score (SHP2 C-SH2 domain E139D),enrichment score [1],enrichment score (SHP2 N-SH2 domain L43F),enrichment score (SHP2 N-SH2 domain T42A),enrichment score (SHP2 N-SH2 domain T52S),enrichment score [2]
B1,inactive: 0.927,inactive: 0.968,inactive: 0.788,inactive: 0.712,inactive: 0.717,inactive: 0.561
B2,inactive: 0.835,inactive: 1,inactive: 2.7,inactive: 2.21,inactive: 2.1,inactive: 0.723
B3,inactive: 0.559,inactive: 0.597,inactive: 0.505,inactive: 0.596,inactive: 0.465,inactive: 0.668
B4,inactive: 1.33,inactive: 1.12,inactive: 0.993,inactive: 0.842,inactive: 1.02,inactive: 1.04
B5,inactive: 1.2,inactive: 1.31,inactive: 1.27,inactive: 1.06,inactive: 1.31,inactive: 1.47
B6,inactive: 0.665,inactive: 0.67,inactive: 0.684,inactive: 0.71,inactive: 0.82,inactive: 0.876
B7,inactive: 0.573,inactive: 0.518,inactive: 0.684,inactive: 0.554,inactive: 0.52,inactive: 0.639
B8,inactive: 0.837,inactive: 0.718,inactive: 0.733,inactive: 0.69,inactive: 0.948,inactive: 0.7
B9,inactive: 1.22,inactive: 0.908,inactive: 1.23,inactive: 1.08,inactive: 1.16,inactive: 1.26
B10,inactive: 0.822,inactive: 0.647,inactive: 0.746,inactive: 0.623,inactive: 0.801,inactive: 0.634
B11,inactive: 0.931,inactive: 1.2,inactive: 0.894,inactive: 0.874,inactive: 0.895,inactive: 0.79
B12,inactive: 0.908,inactive: 1.76,inactive: 0.775,inactive: 0.796,inactive: 0.73,inactive: 0.89
B13,inactive: 0.961,inactive: 0.866,inactive: 0.858,inactive: 0.727,inactive: 0.781,inactive: 0.964
B14,inactive: 2.09,inactive: 2.12,inactive: 2.23,inactive: 2.17,inactive: 2.35,inactive: 2.81
B15,inactive: 1.33,inactive: 1.44,inactive: 1.26,inactive: 1.29,inactive: 1.26,inactive: 1.53
B16,inactive: 1.57,inactive: 1.1,inactive: 0.866,inactive: 0.909,inactive: 0.846,inactive: 0.806
B17,inactive: 1.11,inactive: 0.808,inactive: 0.826,inactive: 0.983,inactive: 0.981,inactive: 0.719
B18,inactive: 0.692,inactive: 0.652,inactive: 0.946,inactive: 1.01,inactive: 1.15,inactive: 0.906

Binder,enrichment score (SHP2 C-SH2 domain E139D),enrichment score [1],enrichment score (SHP2 N-SH2 domain L43F),enrichment score (SHP2 N-SH2 domain T42A),enrichment score (SHP2 N-SH2 domain T52S),enrichment score [2]
B19,inactive: 1.24,inactive: 1.08,inactive: 0.912,inactive: 0.859,inactive: 0.955,inactive: 1.2
B20,inactive: 0.594,inactive: 0.851,inactive: 0.503,inactive: 0.704,inactive: 0.786,inactive: 0.665
B21,inactive: 1.19,inactive: 1.16,inactive: 1.39,inactive: 1.25,inactive: 1.55,inactive: 1.39
B22,inactive: 1.12,inactive: 1.01,inactive: 0.894,inactive: 1.04,inactive: 1.13,inactive: 1.1
B23,inactive: 0.678,inactive: 0.619,inactive: 0.791,inactive: 0.578,inactive: 0.661,inactive: 0.629
B24,inactive: 0.836,inactive: 0.518,inactive: 0.726,inactive: 0.625,inactive: 0.654,inactive: 0.627
B25,inactive: 0.931,inactive: 1.05,inactive: 0.94,inactive: 0.868,inactive: 0.835,inactive: 0.808
B26,inactive: 0.892,inactive: 0.838,inactive: 1.11,inactive: 2.84,inactive: 1.14,inactive: 1.04
B27,inactive: 1.31,inactive: 1.14,inactive: 1.21,inactive: 1.05,inactive: 1.42,inactive: 1.52
B28,inactive: 1.91,inactive: 1.52,inactive: 1.35,inactive: 1.31,inactive: 1.53,inactive: 1.96
B29,inactive: 0.732,inactive: 0.6,inactive: 0.714,inactive: 0.669,inactive: 0.705,inactive: 0.668
B30,inactive: 1.39,active: 4.21,inactive: 0.747,inactive: 0.688,inactive: 0.658,inactive: 0.901
B31,inactive: 1.14,inactive: 0.955,inactive: 0.945,inactive: 0.894,inactive: 1.31,inactive: 0.974
B32,active: 5.68,active: 9.43,inactive: 1.71,active: 4.06,inactive: 2.04,inactive: 2.38
B33,inactive: 0.482,inactive: 0.503,inactive: 0.639,inactive: 0.488,inactive: 0.759,inactive: 0.486
B34,inactive: 1.07,inactive: 0.973,inactive: 1.1,inactive: 1.04,inactive: 1.03,inactive: 1.15
B35,inactive: 0.864,inactive: 0.742,inactive: 0.802,inactive: 0.742,inactive: 0.804,inactive: 0.974
B36,inactive: 1.02,inactive: 0.777,inactive: 0.857,inactive: 0.959,inactive: 0.87,inactive: 1.07
